{"source": "patent US8809377B2", "about": "“Deubiquitinase inhibitors and methods for use of the same” (The Regents of the University of Michigan, priority 2010, dated 2014)", "key": {"ubiquitinated proteins": {"test_system": "ubiquitinated proteins", "assay": "Ubiquitin immunoblot of cell extracts", "type": "cell-based", "method": "Total cell lysates were prepared by boiling and sonicating cell pellets in 1× Laemmli reducing sample buffer. To prepare detergent soluble and insoluble fractions, cells were lysed in cold isotonic lysis buffer [10 mM Tris-HCl (pH 7.5), 0.5% Triton X-100, 150 mM NaCl along with Mini-Complete and PhosSTOP] for 15 min on ice and centrifuged 10 min at 20,000 RCF. The clarified supernatant was used as the detergent soluble cell fraction. The residual pellet was washed and extracted in Laemmli reducing sample buffer and briefly sonicated to derive the detergent insoluble fraction. Equal volumes of cellular lysate or equal protein amounts were electrophoresed on SDS-PAGE gels and transferred to nitrocellulose membranes (Whatmann, Dassel, Germany). Proteins were detected by immunoblotting.\nWhole cell lysates were prepared by boiling and sonicating the cell pellets in 1× Laemmli reducing sample buffer. To prepare detergent soluble and insoluble fractions, cells were lysed in cold isotonic lysis buffer [10 mM Tris-HCl (pH 7.5), 0.5% Triton X-100, 150 mM NaCl along with Mini-Complete and PhosSTOP] for 15 min on ice and centrifuged 10 minutes at 20,000 RCF. The clarified supernatant was used as a source of the detergent soluble cell fraction. The detergent insoluble fraction was extracted by the sonication of residual pellet in equal volumes of boiling 1× Laemmli reducing sample buffer. […]"}, "Bcr-Abl": {"test_system": "Bcr-Abl", "assay": "Bcr-Abl immunoblot of cell fractions", "type": "cell-based", "conditions": "CML cells"}, "USP9X [1]": {"target": "T1, USP9X (Homo sapiens, UniProt Q93008)", "T1 construct": "USP9x; immunoprecipitated from 500 μg Z138 cell lysate; endogenous in cells; host or cells: H929, WDT2, Z138, CML cell lines", "T1 sequence (Q93008 whole entry)": "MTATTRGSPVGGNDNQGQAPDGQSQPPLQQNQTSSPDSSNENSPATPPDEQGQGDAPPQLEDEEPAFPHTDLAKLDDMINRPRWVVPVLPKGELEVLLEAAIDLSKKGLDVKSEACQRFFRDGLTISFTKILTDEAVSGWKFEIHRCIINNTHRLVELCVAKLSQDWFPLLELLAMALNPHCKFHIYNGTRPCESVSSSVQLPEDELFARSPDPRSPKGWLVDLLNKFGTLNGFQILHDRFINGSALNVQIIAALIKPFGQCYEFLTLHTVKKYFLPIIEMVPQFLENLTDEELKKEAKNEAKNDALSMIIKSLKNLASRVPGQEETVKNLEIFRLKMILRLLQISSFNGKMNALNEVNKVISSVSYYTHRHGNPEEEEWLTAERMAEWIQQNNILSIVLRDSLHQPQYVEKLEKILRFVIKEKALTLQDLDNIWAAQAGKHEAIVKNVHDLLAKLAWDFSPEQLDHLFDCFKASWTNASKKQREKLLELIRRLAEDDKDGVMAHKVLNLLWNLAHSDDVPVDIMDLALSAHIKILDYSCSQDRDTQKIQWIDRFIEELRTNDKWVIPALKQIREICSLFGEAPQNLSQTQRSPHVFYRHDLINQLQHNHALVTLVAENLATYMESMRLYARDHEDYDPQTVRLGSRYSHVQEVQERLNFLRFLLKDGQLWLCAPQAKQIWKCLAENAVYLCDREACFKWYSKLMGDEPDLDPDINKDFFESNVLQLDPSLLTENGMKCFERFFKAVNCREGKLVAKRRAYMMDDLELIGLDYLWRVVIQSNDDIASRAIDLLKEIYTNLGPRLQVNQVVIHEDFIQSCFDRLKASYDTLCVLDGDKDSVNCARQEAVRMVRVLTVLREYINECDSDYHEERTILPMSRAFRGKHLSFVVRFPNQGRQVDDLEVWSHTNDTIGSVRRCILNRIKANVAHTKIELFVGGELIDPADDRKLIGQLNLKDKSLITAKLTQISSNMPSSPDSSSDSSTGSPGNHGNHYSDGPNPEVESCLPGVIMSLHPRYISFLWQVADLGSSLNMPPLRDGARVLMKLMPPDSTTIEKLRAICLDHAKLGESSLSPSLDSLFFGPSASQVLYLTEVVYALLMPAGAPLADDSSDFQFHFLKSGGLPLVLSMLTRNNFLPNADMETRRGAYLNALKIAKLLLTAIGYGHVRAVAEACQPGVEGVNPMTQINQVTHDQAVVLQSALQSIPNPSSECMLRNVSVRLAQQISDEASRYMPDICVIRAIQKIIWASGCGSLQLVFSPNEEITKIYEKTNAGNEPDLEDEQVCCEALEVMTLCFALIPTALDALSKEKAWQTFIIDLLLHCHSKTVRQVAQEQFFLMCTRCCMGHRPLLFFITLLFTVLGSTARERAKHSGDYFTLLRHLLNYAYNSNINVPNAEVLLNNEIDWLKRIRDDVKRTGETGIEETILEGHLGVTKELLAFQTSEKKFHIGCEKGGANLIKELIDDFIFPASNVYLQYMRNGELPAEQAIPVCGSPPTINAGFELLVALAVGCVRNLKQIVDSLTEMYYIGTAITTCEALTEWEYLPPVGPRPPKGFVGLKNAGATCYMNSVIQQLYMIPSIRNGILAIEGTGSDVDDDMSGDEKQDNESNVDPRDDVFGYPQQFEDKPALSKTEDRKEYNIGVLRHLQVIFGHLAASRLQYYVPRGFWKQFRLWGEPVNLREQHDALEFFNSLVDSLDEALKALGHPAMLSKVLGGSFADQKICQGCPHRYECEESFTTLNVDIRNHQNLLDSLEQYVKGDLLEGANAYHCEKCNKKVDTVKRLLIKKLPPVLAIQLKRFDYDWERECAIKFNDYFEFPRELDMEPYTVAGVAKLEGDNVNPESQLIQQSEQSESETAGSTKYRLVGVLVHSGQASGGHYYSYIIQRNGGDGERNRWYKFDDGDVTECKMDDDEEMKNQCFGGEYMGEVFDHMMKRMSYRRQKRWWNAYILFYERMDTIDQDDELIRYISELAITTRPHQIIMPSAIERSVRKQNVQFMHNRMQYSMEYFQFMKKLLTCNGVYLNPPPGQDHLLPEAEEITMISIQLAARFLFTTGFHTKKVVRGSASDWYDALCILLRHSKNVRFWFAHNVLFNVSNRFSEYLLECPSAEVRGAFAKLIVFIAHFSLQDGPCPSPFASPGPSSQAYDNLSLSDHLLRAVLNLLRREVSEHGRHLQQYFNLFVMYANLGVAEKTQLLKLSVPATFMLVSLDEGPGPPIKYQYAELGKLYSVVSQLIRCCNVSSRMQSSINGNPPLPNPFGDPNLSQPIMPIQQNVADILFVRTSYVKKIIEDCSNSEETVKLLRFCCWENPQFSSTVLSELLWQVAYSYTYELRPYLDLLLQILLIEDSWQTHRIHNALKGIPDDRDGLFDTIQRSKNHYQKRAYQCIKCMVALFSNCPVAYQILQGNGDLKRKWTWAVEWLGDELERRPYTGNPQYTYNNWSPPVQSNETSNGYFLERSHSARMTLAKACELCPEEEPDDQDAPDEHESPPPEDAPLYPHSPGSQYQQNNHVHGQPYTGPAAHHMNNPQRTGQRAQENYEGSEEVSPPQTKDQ", "assay": "Ub-AMC assay on immunoprecipitated USP9x", "type": "biochemical"}, "Z138": {"test_system": "Z138", "assay": "MTT cell growth, survival and apoptosis", "conditions": "Homo sapiens, Z-138, read-out: apoptotic sensitivity IC50"}, "USP9X [2]": {"test_system": "USP9X", "assay": "Western / HA-UbVS labeling of USP9X in intact cells or lysates", "type": "cell-based"}}}
{"smiles": "CCC[C@H](NC(=O)/C(C#N)=C/c1cccc(Br)n1)c1ccccc1", "note": "[WP1130]", "values": [{"measurement": "ubiquitinated protein levels", "setting": "ubiquitinated proteins; CML cells", "result": "rapid increase"}, {"measurement": "accumulation of ubiquitinated proteins", "setting": "ubiquitinated proteins; Z138 cells", "result": "marked and concentration-dependent accumulation"}, {"measurement": "Bcr-Abl protein levels", "setting": "Bcr-Abl; 5 μM, 2 hours", "result": "reduced"}, {"measurement": "Bcr-Abl trafficking from detergent soluble to insoluble cell fraction", "setting": "Bcr-Abl; WP1130 5 μM, bortezomib 50 nM", "result": "rapid and near complete trafficking"}, {"measurement": "reduction of USP9x activity", "setting": "USP9X [1]; 5 μM, USP9x immunoprecipitated from Z138 lysates", "result": "≥ 80", "unit": "%"}, {"measurement": "reduction of Usp9x activity", "setting": "USP9X [1]; Usp9x immunoprecipitated from CML cells", "result": "> 80", "unit": "%"}, {"measurement": "IC50", "setting": "Z138", "result": "~1", "unit": "µM"}, {"measurement": "Usp9x labeling by HA-UbVs", "setting": "USP9X [2]; CML cell lysates incubated with compound for 1 h", "result": "completely blocked"}, {"measurement": "Usp9x activity (HA-UbVs labeling)", "setting": "USP9X [2]; CML cells treated for 4 hours", "result": "effectively reduced"}, {"measurement": "HA-UbVS labeling of USP9x", "setting": "USP9X [2]; Z138 treated cells", "result": "dose-dependent and time reduction in the labeling"}]}
